{
  "source": "patent US20250145963A1",
  "about": "“Improved Differentiation Method” (Koninklijke Nederlandse Akademie Van Wetenschappen, priority 2016, published 2025)",
  "key": {"[1]": {"system": "Lgr5+ cells of intestinal organoids", "assay": "Flow cytometry of Lgr5GFPDTR organoids (Lgr5-GFP, KI67)", "type": "cell-based, mouse", "conditions": "for KI67 expression of remaining Lgr5 GFP cells: control 94.4±2.1%"}, "intestinal organoids [2]": {"system": "intestinal organoids", "assay": "Cell cycle analysis of intestinal organoids (EdU, KI67, Hoechst DNA content)", "type": "cell-based, mouse", "conditions": "for quiescence of Lgr5+ cells: FIG. 2B"}, "ERK phosphorylation": {"system": "ERK phosphorylation", "assay": "ERK phosphorylation in organoids (histology)", "type": "cell-based, mouse", "conditions": "as early as after 1 h"}, "Lgr5+ stem cells": {"system": "Lgr5+ stem cells", "assay": "RNA sequencing of FACS-isolated active and quiescent Lgr5+ stem cells", "conditions": "d4, p-adj<0.001"}, "intestinal organoids [3]": {"system": "intestinal organoids", "assay": "Cellular composition of organoids after EGFRi treatment (goblet and Tuft cell staining)"}, "[4]": {"system": "cells in the villus of the intestine", "assay": "Oral gavage of mice with BMP inhibitor, villus hormone expression", "type": "in vivo", "conditions": "35 mg/kg oral gavage twice daily, 60 hour treatment"}, "glucagon secretion": {"system": "glucagon secretion", "conditions": "through modulation of calcium channel activity; cited from earlier work"}},
  "note": "Where no end group is shown, it is not given here.",
  "data": [
    {"molecule": "C[C@H](NC(=O)Cc1cc(F)cc(F)c1)C(=O)N[C@H](C(=O)OC(C)(C)C)c1ccccc1", "note": "[DAPT]", "values": [
      {"measurement": "KI67 expression of remaining Lgr5 GFP cells", "setting": "[1]", "value": "45.1±10", "unit": "%"}
    ]},
    {"molecule": "COc1cc2ncnc(Nc3ccc(F)c(Cl)c3)c2cc1OCCCN1CCOCC1", "note": "[Gefitinib]", "values": [
      {"measurement": "Lgr5+ cells as fraction of the organoids", "setting": "[1]; after 4 days of treatment, control 13.6±6.5%", "value": "44.4±0.8", "unit": "%"},
      {"measurement": "DNA content (Hoechst DNA staining), cell cycle phase", "setting": "intestinal organoids [2]", "value": "all cells were in G0/G1 phase"},
      {"measurement": "DNA replication (short pulse of EdU)", "setting": "intestinal organoids [2]; from 24 h, persisted at least a week", "value": "rapid halt in DNA replication"},
      {"measurement": "ERK phosphorylation", "setting": "ERK phosphorylation", "value": "reduced ERK phosphorylation"},
      {"measurement": "Etv4 down-regulation in quiescent Lgr5+ stem cells", "setting": "Lgr5+ stem cells", "value": 7.7, "unit": "×"},
      {"measurement": "number of goblet cells (Muc2, PAS, Alcian blue)", "setting": "intestinal organoids [3]", "value": "significant reduction in the number of goblet cells"},
      {"measurement": "absolute number of Dclk1+ Tuft cells", "setting": "intestinal organoids [3]; 11.3±6.6 in ENR", "value": "35.8±8.8"}
    ]},
    {"molecule": "Cc1ccc2nc(NC(=O)CSc3nc4c(c(=O)n3-c3ccccc3)SCC4)sc2c1", "note": "[IWP-2]", "values": [
      {"measurement": "KI67 expression of remaining Lgr5 GFP cells", "setting": "[1]", "value": "63.5±2.8", "unit": "%"}
    ]},
    {"molecule": "Cl.c1ccc2c(-c3cnn4cc(-c5ccc(N6CCNCC6)cc5)cnc34)ccnc2c1", "note": "[LDN193189]", "values": [
      {"measurement": "Secretin expression in cells in the villus compared to control mice", "setting": "[4]", "value": "greatly reduced"}
    ]},
    {"molecule": "O=C(NOC[C@H](O)CO)c1ccc(F)c(F)c1Nc1ccc(I)cc1F", "note": "[PD0325901]", "values": [
      {"measurement": "quiescence of Lgr5+ cells", "setting": "intestinal organoids [2]", "value": "induced quiescence of Lgr5+ cells"}
    ]},
    {"molecule": "O=C(Nc1ccc2[nH]nc(-c3ccncc3)c2c1)[C@@H]1CCN(CC(=O)N2CCN(c3ccc(-c4ncccn4)cc3)CC2)C1", "note": "[SCH772984]", "values": [
      {"measurement": "quiescence of Lgr5+ cells", "setting": "intestinal organoids [2]", "value": "induced quiescence of Lgr5+ cells"}
    ]},
    {"molecule": "GLP-1: endogenous incretin, Glucagon-like peptide-1 (HAEGTFTSDVSSYLEGQAAKEFIAWLVKGR; ends and bridges not checked; UniProt P01275 98-127, looked up)", "values": [
      {"measurement": "inhibition of glucagon secretion", "setting": "glucagon secretion", "value": 50, "unit": "%"}
    ]}
  ]
}
